No end group written: not given here.
T1: PAK1 peptide (DIQDKPPAPPMRNTST), fluorescein isothiocyanate-conjugated (also: fluorescein isothiocyanate-conjugated (position not given here))
T1 construct: peptide of PAK1, ligand of NCK2 SH3-2; also called PAK1 target peptide
T1 peptide: DIQDKPPAPPMRNTST

T2: Cd3ε peptide (RGQNKERPPPVPNPDY), fluorescein isothiocyanate-conjugated (also: fluorescein isothiocyanate-conjugated (position not given here))
T2 construct: peptide of CD3 epsilon, ligand of NCK2 SH3-1; also called CD3Ɛ
T2 peptide: RGQNKERPPPVPNPDY


Assays:
[1] = target: T1, PAK1 peptide (DIQDKPPAPPMRNTST), …; assay: fluorescence polarisation; 40 nM fluorescein isothiocyanate-conjugated peptide, NCK2 titrated (0-150 μM for CD3ε, 0-175 μM for PAK1); 17 mM Tris-HCl pH 8, 100 mM NaCl; one-site total binding model; triplicates; details: both partners purified
[2] = target: the molecule itself; assay: cell-based or functional assay
[3] = target: T2, Cd3ε peptide (RGQNKERPPPVPNPDY), …; assay: fluorescence polarisation; 40 nM fluorescein isothiocyanate-conjugated peptide, NCK2 titrated (0-150 μM for CD3ε, 0-175 μM for PAK1); 17 mM Tris-HCl pH 8, 100 mM NaCl; one-site total binding model; triplicates; details: both partners purified

Binder	fold decrease against WT NCK2 [1]	binding result [3]	fold decrease against WT NCK2 [3]	phase separation in vitro after 24 h at 60 mM NaCl, proportion of protein in the pellet (Coomassie), relative to WT [2]
NCK2 1|3|2 full-length recombinant protein (SH3-shuffled, tag-free) (other, mouse, UniProt O55033 1-113, looked up, NCK2, mouse, SH3-1 and linker 1; NCK2, mouse, SH3-3; NCK2, mouse, linker 2; NCK2, mouse, SH3-2; NCK2, mouse, linker 3 and SH2; source: E. coli BL21 (DE3), purified (GSTrap, TEV cleavage, HisTrap)) MTEEVIVIAKWDYTAQQDQELDIRKNERLWLLDDSKTWWRVRNAANRTGYVPSNYVERKNSLKKGSLVKNLKDTLGLGKTRRKPSARDASPTPSTDAEYPANGSGADRIYDLNHVVQTLYPFSSVTEEELSFEKGETMEVIEKPENDPEWWKCKNARGQVGLVPKNYVVVLSEAAAEAPSFLSLRRGTALSNGQGARVLIPAFVKFAYVAEREDELSLVKGSRVTVMEKCSDGWWRGSFNGQIGWFPSNYVLEEADDGPALHPAHTPQISYTGPSASGRFAGREWYYGNVTRHQAECALNERGVEGDFLIRDSESSPSDFSVSLKASGRNKHFKVQLVDSVYCIGQRRFHSMDELVEHYKKAPIFTSEHGEKLYLVRALQ	~2 fold			~2 fold
NCK2 2|3|1 full-length recombinant protein (SH3-shuffled, tag-free) (other, mouse, UniProt O55033 114-170, looked up, NCK2, mouse, SH3-2; NCK2, mouse, linker 1; NCK2, mouse, SH3-3; NCK2, mouse, linker 2; NCK2, mouse, SH3-1; NCK2, mouse, linker 3 and SH2; source: E. coli BL21 (DE3), purified (GSTrap, TEV cleavage, HisTrap)) IPAFVKFAYVAEREDELSLVKGSRVTVMEKCSDGWWRGSFNGQIGWFPSNYVLEEADNSLKKGSLVKNLKDTLGLGKTRRKPSARDASPTPSTDAEYPANGSGADRIYDLNHVVQTLYPFSSVTEEELSFEKGETMEVIEKPENDPEWWKCKNARGQVGLVPKNYVVVLSEAAAEAPSFLSLRRGTALSNGQGARVLTEEVIVIAKWDYTAQQDQELDIRKNERLWLLDDSKTWWRVRNAANRTGYVPSNYVERKDGPALHPAHTPQISYTGPSASGRFAGREWYYGNVTRHQAECALNERGVEGDFLIRDSESSPSDFSVSLKASGRNKHFKVQLVDSVYCIGQRRFHSMDELVEHYKKAPIFTSEHGEKLYLVRALQ			~2 fold	

More lines, main results first:

fold decrease against WT NCK2 [1]	binding result [3]	fold decrease against WT NCK2 [3]	Binder	phase separation in vitro after 24 h at 60 mM NaCl, proportion of protein in the pellet (Coomassie), relative to WT [2]
~2 fold	binds		NCK2 3|1|2 full-length recombinant protein (SH3-shuffled, tag-free) (other, mouse, UniProt O55033 198-256, looked up, NCK2, mouse, SH3-3; NCK2, mouse, linker 1; NCK2, mouse, SH3-1; NCK2, mouse, linker 2; NCK2, mouse, SH3-2; NCK2, mouse, linker 3 and SH2; source: E. coli BL21 (DE3), purified (GSTrap, TEV cleavage, HisTrap)) HVVQTLYPFSSVTEEELSFEKGETMEVIEKPENDPEWWKCKNARGQVGLVPKNYVVVLSNSLKKGSLVKNLKDTLGLGKTRRKPSARDASPTPSTDAEYPANGSGADRIYDLNTEEVIVIAKWDYTAQQDQELDIRKNERLWLLDDSKTWWRVRNAANRTGYVPSNYVERKEAAAEAPSFLSLRRGTALSNGQGARVLIPAFVKFAYVAEREDELSLVKGSRVTVMEKCSDGWWRGSFNGQIGWFPSNYVLEEADDGPALHPAHTPQISYTGPSASGRFAGREWYYGNVTRHQAECALNERGVEGDFLIRDSESSPSDFSVSLKASGRNKHFKVQLVDSVYCIGQRRFHSMDELVEHYKKAPIFTSEHGEKLYLVRALQ	~2 fold
	binds		NCK2 2|1|3 full-length recombinant protein (SH3-shuffled, tag-free) (other, mouse, UniProt O55033 114-170, looked up, NCK2, mouse, SH3-2; NCK2, mouse, linker 1; NCK2, mouse, SH3-1; NCK2, mouse, linker 2, SH3-3, linker 3 and SH2; source: E. coli BL21 (DE3), purified (GSTrap, TEV cleavage, HisTrap)) IPAFVKFAYVAEREDELSLVKGSRVTVMEKCSDGWWRGSFNGQIGWFPSNYVLEEADNSLKKGSLVKNLKDTLGLGKTRRKPSARDASPTPSTDAEYPANGSGADRIYDLNTEEVIVIAKWDYTAQQDQELDIRKNERLWLLDDSKTWWRVRNAANRTGYVPSNYVERKEAAAEAPSFLSLRRGTALSNGQGARVLHVVQTLYPFSSVTEEELSFEKGETMEVIEKPENDPEWWKCKNARGQVGLVPKNYVVVLSDGPALHPAHTPQISYTGPSASGRFAGREWYYGNVTRHQAECALNERGVEGDFLIRDSESSPSDFSVSLKASGRNKHFKVQLVDSVYCIGQRRFHSMDELVEHYKKAPIFTSEHGEKLYLVRALQ	
		~2 fold	NCK2 3|2|1 full-length recombinant protein (SH3-shuffled, tag-free) (other, mouse, UniProt O55033 198-256, looked up, NCK2, mouse, SH3-3; NCK2, mouse, linker 1, SH3-2 and linker 2; NCK2, mouse, SH3-1; NCK2, mouse, linker 3 and SH2; source: E. coli BL21 (DE3), purified (GSTrap, TEV cleavage, HisTrap)) HVVQTLYPFSSVTEEELSFEKGETMEVIEKPENDPEWWKCKNARGQVGLVPKNYVVVLSNSLKKGSLVKNLKDTLGLGKTRRKPSARDASPTPSTDAEYPANGSGADRIYDLNIPAFVKFAYVAEREDELSLVKGSRVTVMEKCSDGWWRGSFNGQIGWFPSNYVLEEADEAAAEAPSFLSLRRGTALSNGQGARVLTEEVIVIAKWDYTAQQDQELDIRKNERLWLLDDSKTWWRVRNAANRTGYVPSNYVERKDGPALHPAHTPQISYTGPSASGRFAGREWYYGNVTRHQAECALNERGVEGDFLIRDSESSPSDFSVSLKASGRNKHFKVQLVDSVYCIGQRRFHSMDELVEHYKKAPIFTSEHGEKLYLVRALQ	

From paper PMC7954794, “Protein context shapes the specificity of SH3 domain-mediated interactions in vivo” (Nature Communications, 2021)
